From a collection of fitness landscapes (doi:10.1016/j.celrep.2020.107928)
The full ranking holds about 81,000 sequences; the median of “one-hybrid fitness for binding parS DNA” is about -0.17, and the highest 2% start at about 0.51. The list shows a part of the results.

B1: Caulobacter ParB omega fusion; a variant is named by its letters at X, in order, B8GW30 (parent)
chain: MESVVVGEPGMSEGRRGLGRGLSALLGEVDAAPAQAPGEQLGGSREAPIEILQRNPDQPRRTFREEDLEDLSNSIREKGVLQPILVRPSPDTAGEYQIVAGERAWRAAQRAGLKTVPIMVRELDDLAVLEIGIIENVQRADLNVLEEALSYKVLMEKFERTQENIAQTIGKSXSHVANXMRLLXLPDEVQSYLVSGELTAXHARAIAAAADPVALAKQIIEGGLSVRETEALARKAPNLSAGKSKGGRPPRVKDTDTQALESDLSSVLGLDVSIDHRGSTGTLTITYATLEQLDDLCNRLTRGI

Variants of: B1
Assay: one-hybrid fitness for binding parS DNA (scaled: cognate 1, non-cognate 0); higher = stronger binding
Settings: with parS DNA site
How it was run: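 Bacterial one-hybrid selection in E. coli USO rpoZ- hisB- pyrF- with a HIS3 reporter carrying the site 19 bp from the promoter, screening Caulobacter ParB libraries with four specificity codons randomised (NNS). Cells grew 48 hours at 37°C on M9-minus-histidine plus 0.1 mM IPTG and 5 mM 3-AT. Plasmids before and after selection were Illumina-sequenced, three replicate libraries pooled, and variants under 10 reads dropped. Fitness is the log change in variant-to-wild-type read ratio, rescaled to cognate 1, non-cognate 0.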

Variant | one-hybrid fitness for binding parS DNA
PEYC | ≤ 0.2
AYPL | ≤ 0.2
SSMT | ≤ 0.2
AGQS | ≤ 0.2
QDPK | ≤ 0.2
AETA | ≤ 0.2
DKLG | ≤ 0.2
AMWF | ≤ 0.2
APGH | ≤ 0.2
SVSL | ≤ 0.2
MKTD | ≤ 0.2
NSGP | ≤ 0.2
YVTS | ≤ 0.2
LYKC | ≤ 0.2
VPYF | ≤ 0.2
PNSK | ≤ 0.2
LFRT | ≤ 0.2
NPPS | ≤ 0.2
SNGM | ≤ 0.2
ATEQ | ≤ 0.2
ASRV | ≤ 0.2
IHWT | ≤ 0.2
RMMD | ≤ 0.2
RARC | 0.921
YELT | ≤ 0.2

Variant | one-hybrid fitness for binding parS DNA
DCSA | ≤ 0.2
NSPA | ≤ 0.2
YTQR | ≤ 0.2
SLWL | ≤ 0.2
QMSR | ≤ 0.2
PLNI | ≤ 0.2
MAIY | ≤ 0.2
VPMC | ≤ 0.2
PKLT | ≤ 0.2
EAGS | ≤ 0.2
QYLT | ≤ 0.2
QDSA | ≤ 0.2
TQQG | ≤ 0.2
ALDA | ≤ 0.2
MYYR | ≤ 0.2
HEKN | ≤ 0.2
CLPK | ≤ 0.2
PPNK | ≤ 0.2
VLDT | ≤ 0.2
HQCK | ≤ 0.2
NIAG | ≤ 0.2
GVST | ≤ 0.2
ILHT | ≤ 0.2
IWVR | ≤ 0.2
MHLR | ≤ 0.2

Variant | one-hybrid fitness for binding parS DNA
PREI | ≤ 0.2
INRL | ≤ 0.2
RHAA | 0.534
YNNM | ≤ 0.2
GMTG | ≤ 0.2
LSFL | ≤ 0.2
PSSF | ≤ 0.2
HRVR | ≤ 0.2
QTDV | ≤ 0.2
VMEV | ≤ 0.2
ATWS | ≤ 0.2
GLHW | ≤ 0.2
VRRG | ≤ 0.2
ARLL | ≤ 0.2
PVYV | ≤ 0.2
QNTK | ≤ 0.2
HHDC | ≤ 0.2
YKPM | ≤ 0.2
RKED | ≤ 0.2
GDES | ≤ 0.2
TPKM | ≤ 0.2
SKPG | ≤ 0.2
MQYG | ≤ 0.2
TEDN | ≤ 0.2
MATF | ≤ 0.2

Variant | one-hybrid fitness for binding parS DNA
NIFR | ≤ 0.2
SLEL | ≤ 0.2
SFLE | ≤ 0.2
VCRI | ≤ 0.2
PWKC | ≤ 0.2
AEMW | ≤ 0.2
PPTW | ≤ 0.2
HTKN | ≤ 0.2
PVII | ≤ 0.2
NTHL | ≤ 0.2
GVHC | ≤ 0.2
ESQR | ≤ 0.2
DRSD | ≤ 0.2
RIYF | 0.265
RRCY | 0.26
PWKH | ≤ 0.2
SVKR | ≤ 0.2
RLHG | 1.01
VAIN | ≤ 0.2
KLVC | ≤ 0.2
VPSP | ≤ 0.2
GLQI | ≤ 0.2
KKYR | ≤ 0.2
